# PubChem BioAssay AID686978 (National Center for Advancing Translational Sciences (NCATS), 2013)
# About 64,000 (15%) of roughly 420,000 compounds were called active. The shares of active, inactive and inconclusive entries below differ from those in the screen. Calls follow the shape of the dose curve; as a rule, active = well fitted inhibition curve with a large enough effect; inconclusive = small, poorly fitted or top-dose-only effect; inactive = flat fitted curve, though single readings scatter. Potencies of inconclusive entries are left out as doubtful fits.
# Test: qHTS for Inhibitors of human tyrosyl-DNA phosphodiesterase 1 (TDP1): qHTS in cells in absence of CPT; also: nearly all actives have a fitted effect of over 55% in size
# Settings: DT40 Tdp1-/- hTDP1 cells, no CPT, ATP luminescence, 48 h; activity change, negative = growth inhibition: at 46.2 µM (top of the series) unless noted
# Procedure, shortened: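 Luminescent ATP content (CellTiter-Glo) served as the growth readout. Knockout chicken DT40 cells expressing human TDP1 were exposed to compounds without camptothecin for a minimum 48 hr at 37 °C.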
# % is scaled to controls: 0 for no effect and ±100 for the full control effect; potency is read from the fitted curve at half-maximal effect; tags tell the direction and shape of the fitted curve.
SMILES,Potency,"activity change, negative = growth inhibition"
Cc1cc(C)cc(OC(C)C(=O)Nc2ccccc2C(=O)NCc2cccnc2)c1 (stereo not drawn),"inconclusive [inhibitor, single point]",–
Cc1ccc(CN2CC[C@H]3C=CCc4cccc(c43)C2)cc1,active: 20.6 µM,–
CCC/C(O)=C1\C(=O)CC(c2ccccc2)CC1=NCCc1c(C)[nH]c2ccccc12 (stereo not drawn),"inconclusive [inhibitor, single point]",–
Cc1ccc(C2=NC(C)(C)NC2=O)cc1,–,inactive: -14.9%
CN1CCC2(CC1)Nc1nc(SCc3ccc(Cl)cc3)nn1C1=C2CN(C)CC1,active: 23.1 µM,–
CCCSCCCNC(=O)c1ccc(Cn2c(=O)c3cccn3c3cccnc32)cc1,–,inactive: -23.5%
COCCn1c(SCC(=O)N(C)c2ccccc2)nc2c([nH]c3ccccc32)c1=O,–,inactive: 1.37%
Cc1ccc(C2=NN(CC(=O)NCCN(C)C)C(=O)CC2)cc1,–,inactive: -22.5%
C[C@@H]1CN([C@H](C)CO)C(=O)c2cc(NC(=O)Nc3ccc(C(F)(F)F)cc3)ccc2O[C@H]1CN(C)C(=O)Nc1ccc(F)cc1,"inconclusive [inhibitor, single point]",–
Cc1cc(C)nc(NC(=O)/C=C/c2ccccc2Cl)n1,–,inactive: -11.6%
Cc1ccc(S(=O)(=O)N2CCCN(C(=O)CNC(=O)c3cccc(C)c3)CC2)cc1,–,inactive: -0.0929%
COc1ccc(Cl)cc1NC(=O)CCc1c(C)nc2c(c1C)c(=O)n(C)c(=O)n2C,–,inactive: -13%
O=C(Nc1ccccc1)c1ccc(-c2ccccc2C(F)(F)F)o1,active: 20.6 µM,–
COc1ccc(N(CC(=O)N2CCN(Cc3ccccc3)CC2)S(=O)(=O)c2ccccc2)cc1,"inconclusive [inhibitor, single point]",–
COc1ccc(C(=O)N2CCC(C)(C(=O)O)C2)cc1OC (stereo not drawn),–,inactive: 2.93%
CC(=NNC1=NCCN1)c1cnn(C2=NCCN2)c1C,–,inactive: -16%
COc1cccc(C(C)(O)c2nc(-c3cccc(C(F)(F)F)c3)cs2)c1 (stereo not drawn),"inconclusive [inhibitor, single point]",–
CCCCn1c(SCC(=O)N2CCCC2=O)nc2cc(S(N)(=O)=O)ccc21,–,inactive: 2.67%
COc1cccc(CN2CCC(CO)(CC3CCCCO3)CC2)c1 (stereo not drawn),–,inactive: -8.28%
CCOC(=O)C1=CCN(S(=O)(=O)c2ccc(C)cc2)C1c1cccc(Br)c1 (stereo not drawn),"inconclusive [inhibitor, single point]",–
Oc1ccc(-c2nccc(-c3ccc(F)cc3)n2)cc1,–,inconclusive: -32.2% [inhibitor]
CC(=O)c1cccc(S(=O)(=O)N2CCN(c3nc(-c4cccs4)nc4ccccc34)CC2)c1,"inconclusive [inhibitor, single point]",–
CCN1C(=O)C(CC(=O)Nc2ccc(OC)cc2)N(CCCN2CCN(c3ccc(OC)cc3)CC2)C1=S (stereo not drawn),active: 16.4 µM,–
CCOc1ccc(Br)cc1C(=O)N/N=C/c1ccccn1,"inconclusive [inhibitor, single point]",–
COc1cccc(C(=O)Nc2ccccc2N2CCOCC2)c1,"inconclusive [inhibitor, single point]",–

SMILES,Potency,"activity change, negative = growth inhibition"
COc1ccc(/C=C2\SC(=O)N(CCc3nnc(N)s3)C2=O)cc1,–,inactive: -3.71%
COc1ccccc1/C=N/NC(=O)c1cccc(OC(F)(F)C(F)F)c1,"inconclusive [inhibitor, single point]",–
COc1ccc(Cl)cc1NC(=O)Cn1cc(C(=O)c2ccncc2)c(=O)c2cc(C)ccc21,"inconclusive [inhibitor, single point]",–
O=C(c1ccc2c(c1)OCO2)C1CCCN(C2CCN(CCc3ccccc3)CC2)C1 (stereo not drawn),active: 20.6 µM,–
CSc1cccc(N2CC(C(=O)Nc3cccc(S(=O)(=O)N4CCCC4)c3)CC2=O)c1 (stereo not drawn),active: 14.6 µM,–
Nc1ncc(S(=O)(=O)NCc2ccc(Cl)cc2)cn1,–,inactive: -23.7%
O=C(Nc1ccc2c(c1)OCO2)c1noc2c1CCCCC2,"inconclusive [inhibitor, partial curve]",–
C=CCn1c(SCC(=O)Nc2ccc3c(c2)OCCO3)nnc1-c1ccco1,–,inconclusive: -34.9% [inhibitor]
Cc1ccc(NC2CCCN(C(=O)c3ccc(-n4ccnc4)cc3)C2)cc1C (stereo not drawn),–,inactive: -26%
COC(=O)C1C(=O)C2=C(CC1C)NC(C)=C(C(=O)OC1CCCC1)C2c1ccc(N(C)C)cc1 (stereo not drawn),"inconclusive [inhibitor, single point]",–
O=C(CSc1ccc2ccccc2n1)c1ccccc1,"inconclusive [inhibitor, single point]",–
CC(C)NC(=O)c1ccc(-n2c(-c3ccccc3)cc3c2CCCCC3)cc1,"inconclusive [inhibitor, partial curve, poor fit]",–
Cc1noc(C)c1COC(=O)C1CCN(S(=O)(=O)c2c(Cl)cccc2Cl)CC1,–,inactive: -0.241%
NC(Cc1ccc(O)c([N+](=O)[O-])c1)C(=O)O (stereo not drawn),–,inactive: -20.2%
CCc1nc2cc(NC(=O)C3(C)CCCN(C(C)=O)C3)ccc2o1 (stereo not drawn),–,inactive: -6.13%
CCC1Sc2ccc(S(=O)(=O)CCC(=O)Nc3ccc(C(=O)OC)cc3)cc2NC1=O (stereo not drawn),–,inactive: -1.43%
COc1ccc(-c2[nH]ncc2CNCCn2cccn2)c(F)c1,–,inactive: 1.87%
C[C@H](NC(=O)c1nc[nH]c1C(=O)NCc1ccccc1)C(=O)OC(C)(C)C,"inconclusive [inhibitor, single point]",–
COc1ccc(S(=O)(=O)N2CCCN(CC(=O)Nc3ccc4c(c3)OCO4)CC2)cc1,–,inconclusive: -32.7% [inhibitor]
CN(CC(=O)Nc1ccc(F)c(F)c1F)C(=O)CCc1nc2sc3c(c2c(=O)[nH]1)CCCC3,"inconclusive [inhibitor, single point]",–
COc1ccc(CC(=O)Nc2sc3c(c2C(N)=O)CCCC3)cc1OC,active: 18.4 µM,–
CCCN(Cc1ccccc1)C(=S)Nc1ccc(OCC)cc1,active: 18.4 µM,–
CCCCCC(=O)NNC(=S)NC(=O)c1cccc([N+](=O)[O-])c1,active: 13 µM,–
Cc1ccccc1C(=O)Nc1cccc(C(=O)OCc2cc(=O)n3c4c(sc3n2)CCCC4)c1,"inconclusive [inhibitor, single point]",–
Cc1ccc(-c2csc(N=C(N)N)n2)cc1,"inconclusive [inhibitor, partial curve]",–

SMILES,Potency,"activity change, negative = growth inhibition"
O=C(c1ccco1)N1CCC2(CC1)CCN(c1ncccn1)CC2,"inconclusive [inhibitor, partial curve]",–
O=C(NCCc1c[nH]c2ccccc12)C(=O)c1c[nH]c2ccccc12,active: 14.6 µM,–
CC[C@@]12C(=O)N(c3cccc(C)c3)C(=O)N1[C@H](c1ccc(Br)cc1)[C@@H]1C(=O)N(C(C)(C)C)C(=O)[C@@H]12,"inconclusive [inhibitor, single point]",–
Cc1cc(-c2nn(-c3ccccc3F)cc2CN2CCC(C(N)=O)CC2)c(C)s1,"inconclusive [inhibitor, single point]",–
O=C(c1cccc2ccccc12)C1CCCN(C(=O)C2CCOCC2)C1 (stereo not drawn),–,inactive: -12.4%
COc1ccc(CNC(=O)C2CCN(C(=O)c3csc(Nc4ccc(C)cc4)n3)CC2)cc1,"inconclusive [inhibitor, single point]",–
Cc1cccc(OC2CCN(Cc3c(C(=O)N4CCCC4)nc4ccccn34)CC2)c1,"inconclusive [inhibitor, single point]",–
Nc1n[nH]c(N)c1N=Nc1ccc(Cl)cc1Cl,–,inactive: 13.5%
CCc1nc(NCCO)c(C#N)c2c1CSC(C)(C)C2,"inconclusive [inhibitor, partial curve, poor fit]",–
O=C(C[N+]1(CCO)CCOCC1)c1ccc(F)c2ccccc12,"inconclusive [inhibitor, full curve, poor fit]",–
CC(=O)Nc1ccc(S(=O)(=O)N2CCc3cc4c(cc3C2)OCCCO4)cc1,"inconclusive [inhibitor, partial curve, poor fit]",–
Cc1ccc2nc(-c3ccc(N4C(=N)SC5CS(=O)(=O)CC54)cc3)sc2c1 (stereo not drawn),"inconclusive [inhibitor, single point]",–
O=C(Nc1ccccc1Cl)/C(Cl)=C(\Cl)S(=O)c1ccccc1 (stereo not drawn),active: 0.206 µM,–
COc1ccccc1OCC(=O)Nc1ccc(CSc2ccccc2)cc1C,"inconclusive [inhibitor, single point]",–
Cc1ccc2oc3c(c(=O)c2c1)C(c1ccccc1F)N(CCCN1CCOCC1)C3=O (stereo not drawn),active: 18.4 µM,–
COc1ccc(N(CC(=O)NCCc2ccccc2)S(=O)(=O)c2ccccc2)c(OC)c1,active: 20.6 µM,–
Nc1ncnc2c1ncn2[C@@H]1O[C@H](COP(=O)(O)OP(=O)(O)OP(=O)(O)OP(=O)(O)OC[C@@H]2O[C@H](n3cnc4c(N)ncnc43)[C@@H](O)[C@H]2O)[C@@H](O)[C@H]1O,"inconclusive [inhibitor, single point]",–
Cc1ccc(C(=O)NCCNc2ccc([N+](=O)[O-])cc2C(F)(F)F)cc1,active: 18.4 µM,–
NC(=O)N/N=C/c1cc(Br)ccc1OC(=O)c1ccccc1,–,inactive: 0.123%
O=C(NC(=S)Nc1ccc(S(=O)(=O)N2CCCC2)cc1)C1CCC1,active: 16.4 µM,–
CCCCNC(=O)CSc1nc2cc3c(cc2c(=O)n1CCCCCC(=O)NCc1ccc2c(c1)OCO2)OCO3,–,inactive: -7%
Oc1ccccc1C(=S)N1CCN(c2cccc(Cl)c2)CC1,"inconclusive [inhibitor, partial curve]",–
Cc1ccc(-n2c(SCC(=O)NCc3ccc(F)cc3)nc3c([nH]c4ccccc43)c2=O)cc1,active: 23.1 µM,–
